Data as given in PubChem BioAssay AID1745853 (National Center for Advancing Translational Sciences (NCATS), 2022).
The list shows a part of the results. The main result of the screen is listed elsewhere. These columns were measured beside it and carry no call.

Legend:
Assay in all cases: Primary Screen for Target Class Profiling of Small Molecule Inhibitors of Methyltransferases
[1] = biological target: Glycine N-methyltransferase (Homo sapiens) (UniProt Q14749); conditions: purified enzyme, MTase-Glo SAH luminescence; measured here: GNMT inhibition; at 40 µM; stronger effect = lower value
Method in brief: (§1)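 Each enzyme was assayed with SAM and its substrate. SAH formation detected by MTase-Glo luminescence; single-point 40 uM screen[…].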

[2] = biological target: Guanidinoacetate N-methyltransferase (Homo sapiens) (UniProt Q14353); conditions: purified enzyme, MTase-Glo SAH luminescence; measured here: GAMT inhibition; at 40 µM; stronger effect = lower value
Method in brief: as §1

[3] = biological target: Histamine N-methyltransferase (Homo sapiens) (UniProt P50135); conditions: purified enzyme, MTase-Glo SAH luminescence; measured here: HNMT inhibition; at 40 µM; stronger effect = lower value
Method in brief: as §1

[4] = biological target: Nicotinamide N-methyltransferase (Homo sapiens) (UniProt P40261); conditions: purified enzyme, MTase-Glo SAH luminescence; measured here: NNMT inhibition; at 40 µM; stronger effect = lower value
Method in brief: as §1

[5] = biological target: Phenylethanolamine N-methyltransferase (Homo sapiens) (UniProt P11086); conditions: purified enzyme, MTase-Glo SAH luminescence; measured here: PNMT inhibition; at 40 µM; stronger effect = lower value
Method in brief: as §1
% is scaled to controls: 0 for no effect and ±100 for the full control effect.

SMILES	activity change, negative = inhibition [1] [%]	activity change, negative = inhibition [2] [%]	activity change, negative = inhibition [3] [%]	activity change, negative = inhibition [4] [%]	activity change, negative = inhibition [5] [%]
O=C(c1ccoc1)N1CCC2(CC1)CC(CO)N(C(=O)c1ccccc1)C2 (stereo unspecified)	-0.107	-0.665	0.97	0.556	2.59
COc1ccccc1CNC(=O)C1(C)Cn2cnc(C(=O)NC3CC3)c2C(=O)N1C1CC1 (stereo unspecified)	-5.52	2.94	-1.18	-3.48	-3.83
C=CCNC(=O)c1cnn2c1CN(C(=O)OCc1ccccc1)CC2	-8.02	-10.7	-4.03	-10.3	-2.5
CC(=O)[C@H]1CCC2C3CC=C4C[C@@H](OS(=O)(=O)O)CC[C@]4(C)C3CC[C@@]21C (stereo partly specified)	-0.516	10.5	7.02	-4.58	2.19
CCC(C)C(=O)OC1CC(O)C23C4OCC5(C(O)CC2C1(C)C(O)O4)C3C(=O)C(O)C1(C)C(O)(c2ccoc2)CC2OC251 (stereo unspecified)	-2.29	-4.22	-8.32	-14.9	-2.18
CC/C=C\C/C=C\C/C=C\CCCCCCCC(=O)OCC(O)COC1OC(CO)C(O)C(O)C1O (stereo unspecified)	0	9.86	4.94	-8.79	5.42
Cc1ccc(C(=O)N[C@H]2CO[C@H]3[C@@H]2OC[C@@H]3n2cc(-c3ccccc3)nn2)cc1	-10.9	-7.96	-4.16	-13.8	-7.8
CCCn1c(=O)c2ccc(C(=O)NC(C)CC)cc2n2c(=O)n(CC(=O)c3ccccc3)nc12 (stereo unspecified)	1.54	1.58	4.38	-0.241	4.61
Cn1nc(C2CCCC2)cc1NC(=O)C1CC1	-1.1	0.715	1.92	-2.33	0.277
COC(=O)NC1CCCN(Cc2ccc(-c3cncnc3)cc2)C1 (stereo unspecified)	-6.36	-0.231	-13.6	-3.14	-10.6
CC1CCC(NC(=O)C2(C)Cn3c(cc4occc43)C(=O)N2CC(C)c2ccccc2)CC1 (stereo unspecified)	-5.36	3.97	-1	-1.82	-2.6
CC(C)(O)C1Cc2c(ccc(C(=O)CCc3ccccc3)c2O)O1 (stereo unspecified)	-6.69	-27.4	-3.09	-42.2	-9.11
COc1ccc(CNC(=O)Cn2nc3n(CCc4ccccc4)c(=O)c4ccccc4n3c2=O)cc1	-1.03	3.41	2.19	2.03	-0.712
CC(C)Cn1c(=O)c2ccc(C(=O)NC(C)C)cc2n2c(=O)n(CC(=O)c3ccccc3)nc12	2.56	0.577	6.31	-3.33	3.63
COc1ccc2cc3n(c2c1)CC(C)(C(=O)NC1CCCCC1)N(Cc1ccc2c(c1)OCO2)C3=O (stereo unspecified)	0.818	0.807	0.053	-2.21	-3.85
O=C1CN(Cc2ccccc2)S(=O)(=O)c2ccccc2N1Cc1ccccc1	15.3	4.6	12.7	4.16	11
CCOc1ccc(CCN2C(=O)c3c(C(=O)OC)ncn3CC2(C)C(=O)NC2CCCCC2)cc1 (stereo unspecified)	-1.34	1.43	4.71	1.5	0.951
C[C@@H](Oc1ccc2[nH]nc(/C=C/c3cnn(CCO)c3)c2c1)c1c(Cl)cncc1Cl	–	11.4	–	-9.11	-6.45
CCc1nc(NC2CCCC2)ncc1C(=O)O	-6.04	-7.75	-3.13	-8.77	-1.59
CC(C)(C=O)Cc1cc(C(C)(C)C)c(O)c(C(C)(C)C)c1	-2.87	15.2	-0.998	-5.88	6.32
CC(C)OCCCNC(=O)C1(C)Cn2c(cc3ccccc32)C(=O)N1Cc1ccc(OC(C)C)cc1 (stereo unspecified)	3.18	3.21	5.33	0.814	-1.13
CC(C)=C/C=C\[C@H](C)[C@H]1CC[C@]2(C)C[C@@H]3C(C)=CC(=O)C3/C(CO)=C\C[C@@H]12 (stereo partly specified)	-4.83	4.58	8.52	-12.4	-7
CCCOc1ccc(CN2C(=O)c3cc4ccccc4n3CC2(C)C(=O)NC2CCCCC2)cc1 (stereo unspecified)	-1.09	0.172	4.33	1.61	1.28
Cc1ccc(NS(=O)(=O)c2cc3c(cc2F)NC(=O)CC3)cc1Cl	–	3.37	–	-18.7	-5.06
COc1ccc(N2C(=O)c3cc4sccc4n3CC2(C)C(=O)NC2CCC(C)CC2)cc1Cl (stereo unspecified)	-2.23	4.1	-1.67	-2.16	-5.16
COc1ccc(CN2CCOC[C@H]2c2ncc(-c3cccnc3)[nH]2)cc1	-2.39	-3.12	-1.93	-4.7	-11.1
COc1ccccc1CNC(=O)C1c2c(n(C)c3ccccc23)SCC(=O)N1c1ccccc1F (stereo unspecified)	1.71	1.21	1.08	2.09	6.32
CCCn1c(=O)c2ccc(C(=O)NC(C)CC)cc2n2c(=O)n(Cc3cccc(F)c3)nc12 (stereo unspecified)	4.76	0.435	8.24	0.981	3.73
CCOC(=O)c1cc2n(n1)CC(C)(C(=O)NCc1ccccc1)N(c1cc(C)ccc1C)C2=O (stereo unspecified)	-1.2	6.47	0.269	-3	-4.5
Cc1ccc([C@@H]2CN(C(=O)CN3CCOC3=O)C[C@H]2NC(=O)C2CC2)cc1	-4	-6.25	-2.77	-10.7	-5.41
